# In the supplement of paper PMC8728848:
# Some of the results follow.
# How the values were obtained:
# Experiment in all cases: glycan array binding signal (z-score within array); higher = stronger binding
# Details in all cases: glycan notation: IUPAC condensed, linker removed
# [1] = target: Fuc(a1-2)Gal(b1-4)GlcNAc(b1-3)Gal(b1-4)GlcNAc(b1-3)Gal(b1-4)GlcNAc
# Procedure, shortened: (§1)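 Glycan array data were curated from 3228 arrays in the Consortium for Functional Glycomics database and kept only where the protein sequence was available. Glycan names were converted to IUPAC-condensed notation, and columns mapping to the same glycan were averaged. The binding signal is a within-array Z-score, averaged across arrays of the same protein sequence at different concentrations or buffers and across linkers. Negative Z-scores can be read as non-binding.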
# [2] = target: Fuc(a1-2)Gal(b1-4)GlcNAc(b1-3)GalNAc
# Procedure, shortened: as §1
# [3] = target: Fuc(a1-2)Gal(b1-4)GlcNAc(b1-3)[Fuc(a1-2)Gal(b1-4)GlcNAc(b1-6)]GalNAc
# Procedure, shortened: as §1
# [4] = target: Fuc(a1-2)Gal(b1-4)GlcNAc(b1-3)[Fuc(a1-3)[Gal(b1-4)]GlcNAc(b1-6)]Gal(b1-4)Glc
# Procedure, shortened: as §1
# [5] = target: Fuc(a1-2)Gal(b1-4)GlcNAc(b1-6)GalNAc
# Procedure, shortened: as §1
# [6] = target: Fuc(a1-2)Gal(b1-4)GlcNAc6S
# Procedure, shortened: as §1
# [7] = target: Fuc(a1-2)Gal(b1-4)[Fuc(a1-3)]GlcNAc
# Procedure, shortened: as §1
# [8] = target: Fuc(a1-2)Gal(b1-4)[Fuc(a1-3)]GlcNAc(b1-2)Man(a1-3)[Fuc(a1-2)Gal(b1-4)[Fuc(a1-3)]GlcNAc(b1-2)Man(a1-6)]Man(b1-4)GlcNAc(b1-4)[Fuc(a1-6)]GlcNAc
# Procedure, shortened: as §1
# [9] = target: Fuc(a1-2)Gal(b1-4)[Fuc(a1-3)]GlcNAc(b1-2)[Fuc(a1-2)Gal(b1-4)[Fuc(a1-3)]GlcNAc(b1-4)]Man(a1-3)[Fuc(a1-2)Gal(b1-4)[Fuc(a1-3)]GlcNAc(b1-2)Man(a1-6)]Man(b1-4)GlcNAc(b1-4)GlcNAc
# Procedure, shortened: as §1
# [10] = target: Fuc(a1-2)Gal(b1-4)[Fuc(a1-3)]GlcNAc(b1-3)Gal(b1-4)[Fuc(a1-3)]GlcNAc
# Procedure, shortened: as §1
# [11] = target: Fuc(a1-2)Gal(b1-4)[Fuc(a1-3)]GlcNAc(b1-3)Gal(b1-4)[Fuc(a1-3)]GlcNAc(b1-3)Gal(b1-4)[Fuc(a1-3)]GlcNAc
# Procedure, shortened: as §1
# [12] = target: Fuc(a1-2)Gal(b1-4)[Fuc(a1-3)]GlcNAc(b1-3)GalNAc
# Procedure, shortened: as §1
# [13] = target: Fuc(a1-2)Gal(b1-4)[Fuc(a1-3)]GlcNAc(b1-3)[Neu5Ac(a2-6)Gal(b1-4)GlcNAc(b1-6)]Gal(b1-4)Glc
# Procedure, shortened: as §1
# [14] = target: Fuc(a1-2)Gal3S(b1-4)GlcNAc
# Procedure, shortened: as §1
# [15] = target: Fuc(a1-2)Gal6S(b1-3)GlcNAc
# Procedure, shortened: as §1
# [16] = target: Fuc(a1-2)Gal6S(b1-3)GlcNAc6S
# Procedure, shortened: as §1
# [17] = target: Fuc(a1-2)Gal6S(b1-4)Glc
# Procedure, shortened: as §1
# [18] = target: Fuc(a1-2)Gal6S(b1-4)Glc6S
# Procedure, shortened: as §1
# [19] = target: Fuc(a1-2)[Gal(a1-3)]Gal
# Procedure, shortened: as §1
# [20] = target: Fuc(a1-2)[Gal(a1-3)]Gal(b1-3)GalNAc
# Procedure, shortened: as §1
# [21] = target: Fuc(a1-2)[Gal(a1-3)]Gal(b1-3)GalNAc(b1-3)Gal(a1-4)Gal(b1-4)Glc
# Procedure, shortened: as §1
# [22] = target: Fuc(a1-2)[Gal(a1-3)]Gal(b1-3)GlcNAc
# Procedure, shortened: as §1
# [23] = target: Fuc(a1-2)[Gal(a1-3)]Gal(b1-3)GlcNAc(b1-2)Man(a1-3)[Fuc(a1-2)[Gal(a1-3)]Gal(b1-3)GlcNAc(b1-2)Man(a1-6)]Man(b1-4)GlcNAc(b1-4)GlcNAc
# Procedure, shortened: as §1
# [24] = target: Fuc(a1-2)[Gal(a1-3)]Gal(b1-3)GlcNAc(b1-2)Man(a1-3)[Fuc(a1-2)[Gal(a1-3)]Gal(b1-3)GlcNAc(b1-2)Man(a1-6)]Man(b1-4)GlcNAc(b1-4)[Fuc(a1-6)]GlcNAc
# Procedure, shortened: as §1
# [25] = target: Fuc(a1-2)[Gal(a1-3)]Gal(b1-3)GlcNAc(b1-3)GalNAc
# Procedure, shortened: as §1
# [26] = target: Fuc(a1-2)[Gal(a1-3)]Gal(b1-3)GlcNAc(b1-6)GalNAc
# Procedure, shortened: as §1
# [27] = target: Fuc(a1-2)[Gal(a1-3)]Gal(b1-4)Glc
# Procedure, shortened: as §1
# [28] = target: Fuc(a1-2)[Gal(a1-3)]Gal(b1-4)GlcNAc
# Procedure, shortened: as §1
# [29] = target: Fuc(a1-2)[Gal(a1-3)]Gal(b1-4)GlcNAc(b1-2)Man
# Procedure, shortened: as §1
# [30] = target: Fuc(a1-2)[Gal(a1-3)]Gal(b1-4)GlcNAc(b1-2)Man(a1-3)[Fuc(a1-2)[Gal(a1-3)]Gal(b1-4)GlcNAc(b1-2)Man(a1-6)]Man(b1-4)GlcNAc(b1-4)GlcNAc
# Procedure, shortened: as §1
# [31] = target: Fuc(a1-2)[Gal(a1-3)]Gal(b1-4)GlcNAc(b1-2)Man(a1-3)[Fuc(a1-2)[Gal(a1-3)]Gal(b1-4)GlcNAc(b1-2)Man(a1-6)]Man(b1-4)GlcNAc(b1-4)[Fuc(a1-6)]GlcNAc
# Procedure, shortened: as §1
# [32] = target: Fuc(a1-2)[Gal(a1-3)]Gal(b1-4)GlcNAc(b1-3)GalNAc
# Procedure, shortened: as §1
# [33] = target: Fuc(a1-2)[Gal(a1-3)]Gal(b1-4)GlcNAc(b1-3)[Fuc(a1-2)[Gal(a1-3)]Gal(b1-4)GlcNAc(b1-6)]GalNAc
# Procedure, shortened: as §1
# [34] = target: Fuc(a1-2)[Gal(a1-3)]Gal(b1-4)GlcNAc(b1-6)GalNAc
# Procedure, shortened: as §1
# [35] = target: Fuc(a1-2)[Gal(a1-3)]Gal(b1-4)[Fuc(a1-3)]Glc
# Procedure, shortened: as §1
# [36] = target: Fuc(a1-2)[Gal(a1-3)]Gal(b1-4)[Fuc(a1-3)]GlcNAc
# Procedure, shortened: as §1
# [37] = target: Fuc(a1-2)[Gal(a1-3)]Gal(b1-4)[Fuc(a1-3)]GlcNAc(b1-3)GalNAc
# Procedure, shortened: as §1
# [38] = target: Fuc(a1-2)[Gal(a1-4)]Gal(b1-4)GlcNAc
# Procedure, shortened: as §1
# [39] = target: Fuc(a1-2)[GalNAc(a1-3)]Gal
# Procedure, shortened: as §1
# [40] = target: Fuc(a1-2)[GalNAc(a1-3)]Gal(b1-3)GalNAc(a1-3)[Fuc(a1-2)]Gal(b1-4)GlcNAc
# Procedure, shortened: as §1
# [41] = target: Fuc(a1-2)[GalNAc(a1-3)]Gal(b1-3)GalNAc(b1-3)Gal(a1-4)Gal(b1-4)Glc
# Procedure, shortened: as §1
# [42] = target: Fuc(a1-2)[GalNAc(a1-3)]Gal(b1-3)GlcNAc
# Procedure, shortened: as §1
# [43] = target: Fuc(a1-2)[GalNAc(a1-3)]Gal(b1-3)GlcNAc(b1-2)Man(a1-3)[Fuc(a1-2)[GalNAc(a1-3)]Gal(b1-3)GlcNAc(b1-2)Man(a1-6)]Man(b1-4)GlcNAc(b1-4)GlcNAc
# Procedure, shortened: as §1
# [44] = target: Fuc(a1-2)[GalNAc(a1-3)]Gal(b1-3)GlcNAc(b1-2)Man(a1-3)[Fuc(a1-2)[GalNAc(a1-3)]Gal(b1-3)GlcNAc(b1-2)Man(a1-6)]Man(b1-4)GlcNAc(b1-4)[Fuc(a1-6)]GlcNAc
# Procedure, shortened: as §1
# [45] = target: Fuc(a1-2)[GalNAc(a1-3)]Gal(b1-3)GlcNAc(b1-3)GalNAc
# Procedure, shortened: as §1
binder,measurement,setting,value
Cohesin-mDC-ASGPR (Macaca mulatta) (protein) LDITSHHHHHHDDLDAVRIKVDTVNAKPGDTVRIPVRFSGIPSKGIANCDFVYSYDPNVLEIIEIEPGDIIVDPNPDKSFDTAVYPDRKIIVFLFAEDSGTGAYAITKDGVFATIVAKVKEGAPNGLSVIKFVEVGGFANNDLVEQKTQFFDGGVNVGDTTEPATPTTPVTTPTTTDDLDAASSQNSKFQRDLVTLRTDFSNFTSNTVAEIQALTSQGSSVEEMIASLKAEVEVIKQEQQAVHSEMLLRVQRLMQDLNKLTCQVATLKNNASTERTCCPVNWVEHQDSCYWFSRSGMPWAEAEKHCQLENAHLVVINSREEQNFVQEHLSFAYTWMGLSDREGAWKWVDGTDYETGFQNWKPGQPDDWQGHGLGGGEDCAHFHPDGRWNDDVCQRPYYWVCEAGLTQASQESH,glycan array binding signal (z-score),[1],-0.415
same,glycan array binding signal (z-score),[2],-0.361
same,glycan array binding signal (z-score),[3],0.249
same,glycan array binding signal (z-score),[4],-0.434
same,glycan array binding signal (z-score),[5],2.78
same,glycan array binding signal (z-score),[6],-0.411
same,glycan array binding signal (z-score),[7],-0.404
same,glycan array binding signal (z-score),[8],-0.222
same,glycan array binding signal (z-score),[9],-0.21
same,glycan array binding signal (z-score),[10],-0.421
same,glycan array binding signal (z-score),[11],-0.327
same,glycan array binding signal (z-score),[12],-0.31
same,glycan array binding signal (z-score),[13],-0.41
same,glycan array binding signal (z-score),[14],-0.39
same,glycan array binding signal (z-score),[15],-0.382
same,glycan array binding signal (z-score),[16],0.635
same,glycan array binding signal (z-score),[17],-0.401
same,glycan array binding signal (z-score),[18],-0.339
same,glycan array binding signal (z-score),[19],-0.399
same,glycan array binding signal (z-score),[20],-0.412
same,glycan array binding signal (z-score),[21],-0.416
same,glycan array binding signal (z-score),[22],-0.25
same,glycan array binding signal (z-score),[23],-0.41
same,glycan array binding signal (z-score),[24],-0.388
same,glycan array binding signal (z-score),[25],-0.392
same,glycan array binding signal (z-score),[26],2.27
same,glycan array binding signal (z-score),[27],-0.388
same,glycan array binding signal (z-score),[28],-0.392
same,glycan array binding signal (z-score),[29],-0.34
same,glycan array binding signal (z-score),[30],-0.431
same,glycan array binding signal (z-score),[31],-0.329
same,glycan array binding signal (z-score),[32],-0.396
same,glycan array binding signal (z-score),[33],-0.357
same,glycan array binding signal (z-score),[34],-0.353
same,glycan array binding signal (z-score),[35],-0.407
same,glycan array binding signal (z-score),[36],-0.41
same,glycan array binding signal (z-score),[37],-0.411
same,glycan array binding signal (z-score),[38],-0.397
same,glycan array binding signal (z-score),[39],2.65
same,glycan array binding signal (z-score),[40],0.999
same,glycan array binding signal (z-score),[41],2.18
same,glycan array binding signal (z-score),[42],2.65
same,glycan array binding signal (z-score),[43],2.2
same,glycan array binding signal (z-score),[44],2.82
same,glycan array binding signal (z-score),[45],-0.207
